The source gives no read counts; variants with many changes may rest on few reads.

B1: LINE1-mini (parent)
chain: GGCAGAGCUCAACACAGCGUGGCAAAGUGGCUGUGGCUAGACUGCC

The variants in this series derive from B1. The series is described as follows: self-cleavage, relative activity (ratio to wild type); higher = more cleavage; in vitro, sequencing; the parent is a self-cleaving ribozyme.
Take A6C G7U U9C G17U G27A U32A U34A U43G: the self-cleavage is 0.

Regarding A6C U34A G40C, the self-cleavage came to 0.03.

Regarding A6G A25C U28C, the self-cleavage was 0.02.

With A6C C31A U34A G40C, the self-cleavage was determined as 0.02.

In the case of A6C C18G U20C G21U, the self-cleavage was determined as 0.22.

Turning to A6G A12C C31A C42U, the self-cleavage turned out to be 0.04.

A6C G7U U32G: the self-cleavage worked out at 0.04.

As to A6C U20G C31G G35A U38A, the self-cleavage came out at 0.01.

Consider A6G C8A A26C U38A, for which the self-cleavage was found to be 0.05.

Take A6C U9C A25G C45G: the self-cleavage came out at 0.03.

Consider A6G C15A A25C, for which the self-cleavage stood at 0.11.

Take A6G A16C C31A G35C: the self-cleavage was determined as 0.01.

Consider A6G A26G U28G, for which the self-cleavage stood at 0.1.

As for A6C G36C A39U, the self-cleavage is 0.16.

For the variant A6C G30U C31A, the self-cleavage worked out at 0.06.

With A6C G30U C31U, the self-cleavage amounted to 0.06.

A6C G7C A14C A25C U28G C37A: the self-cleavage is 0.01.

As to A6G C10A A16C U38G, the self-cleavage was 0.01.

Take A6G A16C C37A: the self-cleavage came to 0.54.

As to A6C G36A C46U, the self-cleavage stood at 0.24.

Consider A6G A12G C13U G27A U28G G29C, for which the self-cleavage was 0.02.

As to A6G C10U C18G G36C, the self-cleavage was 0.02.

On to A6C G22U U28A C46U, for which the self-cleavage came to 0.98.

Consider A6G A26C G36A U38A G40U, for which the self-cleavage is 0.17.

In the case of A6G A11U G40A, the self-cleavage is 0.02.

As for A6C U28G G35U C42A, the self-cleavage is 0.02.

For the variant A6G C10U A16G C18U C37G, the self-cleavage amounted to 0.02.

Turning to A6G A11U A16C G36C, the self-cleavage amounted to 0.01.

Consider A6G C13U G19U A25C C31U C46G, for which the self-cleavage was determined as 0.02.

Consider A6G A12U G29U, for which the self-cleavage stood at 0.09.

Turning to A6C G7A C18U G21U A26G C31U G33U G40A, the self-cleavage came out at 0.02.

With A6C G36C A41G, the self-cleavage was determined as 0.26.

As for A6G A26U G30U U34C, the self-cleavage was 0.

For the variant A6G C18A A39U, the self-cleavage came out at 0.04.

Consider A6G C15G U34A, for which the self-cleavage came to 0.03.

For the variant A6G C10A G30A G35U A39G C42G, the self-cleavage amounted to 0.1.

Consider A6C U9C C10U C18G U20G G22C, for which the self-cleavage was 0.03.

In the case of A6C G7C C10G C23U, the self-cleavage was determined as 0.

For the variant A6C U9G C13U C42A, the self-cleavage amounted to 0.1.

Regarding A6G A11G G17U G44A, the self-cleavage is 0.01.

With A6C G21U A39C G44C, the self-cleavage is 0.05.

With A6G C13G C18A G36U A39G, the self-cleavage was 0.03.

As to A6C G17A G30A C37A, the self-cleavage came to 0.03.

As for A6C G7A C10U G17C G35C, the self-cleavage was determined as 0.02.

For A6G C15U G29U, the self-cleavage is 0.47.

For A6C G7U U20G C46A, the self-cleavage is 0.01.

Regarding A6G A16U U20C, the self-cleavage was determined as 0.03.

Take A6C G17C G30A U32C: the self-cleavage turned out to be 0.31.

Take A6G C15U G29C G44C: the self-cleavage is 0.11.

As for A6C G7U G29A C31G, the self-cleavage was 0.01.

Take A6C G22C G35U G36C G40A: the self-cleavage amounted to 0.02.

In the case of A6C G29A U34C, the self-cleavage was 0.15.

With A6G C18A G22A U32A, the self-cleavage came out at 0.01.

For the variant A6G C13A G19C, the self-cleavage came out at 0.1.

As for A6C U9C A16U G44C, the self-cleavage was 0.04.

For the variant A6G C15G G30U A41U, the self-cleavage was determined as 0.02.

With A6C G27A U32G G35U, the self-cleavage is 0.05.

For the variant A6G C10G G29A A39U, the self-cleavage came to 0.06.

In the case of A6C U9A U20C U32G, the self-cleavage came out at 0.04.

Consider A6C G29C A41U C42U, for which the self-cleavage is 0.09.

With A6G C10A C15U, the self-cleavage was found to be 0.01.

A6G A14U U34A: the self-cleavage stood at 0.04.

With A6G A16U G19U C45U, the self-cleavage stood at 0.02.

Consider A6C G27U G33C, for which the self-cleavage was 0.07.

In the case of A6C G27A G30C, the self-cleavage came out at 0.19.

In the case of A6C U32A C45U, the self-cleavage amounted to 0.17.

In the case of A6G C10A G35U, the self-cleavage was 0.01.

With A6G A14C C46A, the self-cleavage is 0.04.

As for A6C C18G U20A, the self-cleavage was 0.17.

As for A6G C8U G33U, the self-cleavage was determined as 0.76.

Turning to A6C C31A A39C A41U, the self-cleavage came out at 0.04.

Take A6C G22U A39C U43C: the self-cleavage came out at 0.1.

Turning to A6G C10U C13A A14U C31G, the self-cleavage worked out at 0.06.

Consider A6G A16G G44A, for which the self-cleavage amounted to 0.02.

Take A6G A14U U43A C46U: the self-cleavage came to 0.06.

As to A6G A26G U34A G44A, the self-cleavage came out at 0.07.

A6G A11U C15A G27A: the self-cleavage was 0.01.

Consider A6G A25G U34C, for which the self-cleavage is 0.02.

In the case of A6G C10G A14G G19C U20C, the self-cleavage came out at 0.01.

Consider A6G C15G G27U U38A, for which the self-cleavage came out at 0.03.

As for A6G C8G A12U G33C U43C, the self-cleavage turned out to be 0.

As to A6G C8G C13U, the self-cleavage was 0.04.

Turning to A6G C13U A14C G29U A39U, the self-cleavage stood at 0.08.

A6G C10U A39C C42U: the self-cleavage is 0.06.

On to A6G A14C C15A U34G G44A, for which the self-cleavage stood at 0.01.

Take A6C U9C A14G C46U: the self-cleavage was found to be 0.03.

As for A6C U9C G27C, the self-cleavage was 0.02.

As to A6G C15A G17C C37U, the self-cleavage was 0.03.

On to A6C U38C C46U, for which the self-cleavage amounted to 0.2.

As for A6G A14U G21U C42U, the self-cleavage came to 0.03.

Regarding A6G C10A G19U C23A G29U, the self-cleavage turned out to be 0.02.

A6C G7C A12U C13A G17C C23G: the self-cleavage was 0.06.

Take A6G C10U A11G: the self-cleavage worked out at 0.01.

Take A6C G21U U38A G44U: the self-cleavage came to 0.01.

Take A6C G22A C37A G40U: the self-cleavage was determined as 0.06.

In the case of A6C U34C G40U, the self-cleavage amounted to 0.45.

With A6G A14G G19U, the self-cleavage came to 0.06.

Regarding A6G A39C A41G, the self-cleavage came to 0.05.

With A6G A11G G21A G30C, the self-cleavage was determined as 0.02.

As to A6G A11G A12C G27U, the self-cleavage worked out at 0.02.

For A6G A11C G40U, the self-cleavage was 0.

Turning to A6C G19C G27U G40U G44U, the self-cleavage came to 0.16.

As to A6G A25G U38A, the self-cleavage worked out at 0.01.

For A6C G17U A25U G30U, the self-cleavage turned out to be 0.19.

On to A6C G22C C42G G44U, for which the self-cleavage was determined as 0.07.

With A6G A11G C13A A41G G44A, the self-cleavage was found to be 0.02.

For the variant A6G A12C G21U G35A, the self-cleavage was determined as 0.02.

In the case of A6G A25U G27U G30U, the self-cleavage is 0.07.

Consider A6G A16C U32C G35U G40U C42A, for which the self-cleavage was 0.02.

Consider A6G C18A C37U, for which the self-cleavage was determined as 0.02.

As to A6G A12C A41C, the self-cleavage stood at 0.03.

Turning to A6G A12C C31G C37U G44A C45G, the self-cleavage worked out at 0.

With A6C C31U C46A, the self-cleavage is 0.27.

On to A6G A12U C37A, for which the self-cleavage came to 0.05.

In the case of A6G A11U C13G, the self-cleavage turned out to be 0.02.

A6G A14G C18A C23G U32C U38C: the self-cleavage came out at 0.

A6C U9G A26G U28G G29A: the self-cleavage is 0.06.

For A6G C8G G36C C42U U43C, the self-cleavage stood at 0.02.

Regarding A6G C15A U28A C45U, the self-cleavage stood at 0.02.

A6C C42G C45U: the self-cleavage amounted to 0.04.

With A6G A16U G27A U34G, the self-cleavage was found to be 0.06.

Turning to A6C U9C G19U G33A, the self-cleavage came out at 0.03.

For the variant A6G C8A U20C G40A C45G, the self-cleavage is 0.01.

As for A6G C8U G30A, the self-cleavage was 0.13.

Regarding A6C G29U A41G, the self-cleavage came to 0.73.

As for A6G A24G A25G A39G, the self-cleavage was 0.01.

Turning to A6C G7U U28A A39U, the self-cleavage amounted to 0.2.

For the variant A6C C18U C31U U34G, the self-cleavage amounted to 0.02.

As to A6G A16C C23A A26G C31G, the self-cleavage stood at 0.03.

With A6C U9G G35A G36U G44A, the self-cleavage was found to be 0.01.

For A6C G19U A26U G30A G36A, the self-cleavage is 0.02.

Regarding A6G C10A A25C, the self-cleavage amounted to 0.02.

With A6G C10A G27A G44A, the self-cleavage is 0.14.

As to A6G C13U C31G, the self-cleavage was 0.01.

Regarding A6C G35C C37U C45A, the self-cleavage came out at 0.02.

For the variant A6G C15U U28A, the self-cleavage was 0.02.

A6G C18A U20A G36A C45A: the self-cleavage came out at 0.01.

Take A6G C13A A14U A25U: the self-cleavage is 0.08.

For A6G C10G A14G G36U C37A, the self-cleavage is 0.01.

In the case of A6C G17A U34A C46U, the self-cleavage worked out at 0.01.

With A6C G22C G30A, the self-cleavage worked out at 0.11.

Turning to A6C G7A C8G A14U G22U C23U U38G C42G, the self-cleavage was 0.23.

For the variant A6C G7A U9C C10U G29A C37U U38C, the self-cleavage was 0.01.

Consider A6G C15A A16C C42G, for which the self-cleavage was 0.02.

Turning to A6G C10U C15U G22A, the self-cleavage turned out to be 0.03.

Regarding A6G A11G A14U G21A C37A, the self-cleavage was determined as 0.01.

With A6C G7A U20G, the self-cleavage turned out to be 0.1.

Take A6C C18U C37G: the self-cleavage came out at 0.01.

As for A6C U28A G30A G36U C37A C45A C46G, the self-cleavage is 0.06.

In the case of A6C G17A A25U C31U, the self-cleavage was found to be 0.12.

In the case of A6G A26U C37A A39U, the self-cleavage is 0.04.

As for A6G A11G C13G G21A C31A G36C A41U, the self-cleavage worked out at 0.02.

On to A6G C10G A24U A41U, for which the self-cleavage came out at 0.02.

In the case of A6C G27C U28C, the self-cleavage is 0.92.

For the variant A6G A16G G40U, the self-cleavage was 0.01.

For A6G A11G A24U, the self-cleavage turned out to be 0.04.

With A6C C23G A39G, the self-cleavage came out at 0.03.

As to A6G A16C G22U, the self-cleavage worked out at 0.09.

Turning to A6G C8U C13G G19U, the self-cleavage came to 0.16.

For A6C G44C C46G, the self-cleavage stood at 0.02.

As to A6C C23A U43G, the self-cleavage was found to be 0.

Take A6G C10A G29A: the self-cleavage is 0.01.

For A6G C8A A11U G22A A26U U28G, the self-cleavage was 0.01.

As to A6G C10U A24U, the self-cleavage amounted to 0.03.

On to A6G A11G G17U C23U G44C, for which the self-cleavage worked out at 0.01.

A6C U9A G19U A26U U34C: the self-cleavage came to 0.04.

A6C G7U A12G G27C U34G: the self-cleavage came out at 0.01.

The values are drawn from the RNAGym collection of RNA variant scans (doi:10.7554/elife.90254).
